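48-hour exposure; five concentrations; linearly interpolated endpoints. Abbreviation: GI50, concentration required for 50% inhibition of growth.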 Active and inactive are the calls of the source. Rule as the data show it: active = GI50 up to about 1.1 µM and inactive = higher.
The compounds below were run on NCI-H322M (assay: growth of human tumour cells (NCI), 48 h).

SMILES | GI50
O=P(O)(O)C1CCCC(P(=O)(O)O)N1 (configuration not stated) | inactive: > 100 µM
O=C(O)CCSC(=O)Nc1cccc([N+](=O)[O-])c1 | inactive: > 100 µM
Cc1nc(C)c(C(=O)NNC(=O)c2ccccc2)cc1C(=O)NNC(=O)c1ccccc1 | inactive: > 100 µM
CC(C)(CC(=O)Nc1ccccc1)C(=O)O | inactive: > 100 µM
Cc1ccnc2nc3[nH]c4ccccc4c3cc12 | inactive: > 100 µM
CN(O)C(=O)Cc1ccc(OCc2cccc(Cl)c2)cc1 | inactive: > 100 µM
CCOP(=O)(OCC)/C(=C\n1ccc(=O)[nH]c1=S)C(=O)OC | inactive: > 100 µM
CC(=O)C1=C(O)C(N)C2Cc3c(c(O)c4c(O)c(C)ccc4c3C)C(=O)C2(O)C1=O (configuration not stated) | inactive: 2.01 µM
C=CC(=O)C#CC#CC/C=C\CCCCCCC | inactive: > 20.6 µM
O=C1C=Cc2c1csc2Br | inactive: > 100 µM
CC1(C)N=c2c(ncn2-c2ccccc2)=C(C(N)=O)N1 | inactive: > 100 µM
C=CCN(C(=O)OC(C)(C)C)C1=CC2C(C)=CN(S(=O)(=O)c3ccccc3)C2C(OCc2ccccc2)=C1 (configuration not stated) | inactive: > 100 µM
O=C1c2cc3c(cc2CC12Cc1ccc4c(c1C2=O)CCC4)CCC3 (configuration not stated) | inactive: > 100 µM
CC(=O)NC1=C(N)C(=O)c2ccccc2C1=O | inactive: > 100 µM
Oc1ccccc1-n1nc2ccc3nonc3c2n1 | inactive: > 100 µM
COc1nc2c(c(=O)n1C)N=C(c1ccccc1)[C@H](C(CC(=O)c1ccccc1)c1ccccc1)C(c1ccccc1)N2 (some centres not stated) | inactive: > 100 µM
CCOP(=O)(OCC)/C(C#N)=C/c1nccn1C | inactive: > 100 µM
CCN(CC)CCOC(=O)c1ccc(N)cc1.CCOC(=O)Nc1ccc(S(=O)(=O)OC)cc1.CCOC(=O)Nc1ccc(S(=O)(=O)OC)cc1.Nc1ccc(C(=O)O)c(O)c1 | inactive: > 100 µM
C[Si](C)(C)CC(N)=O | inactive: > 100 µM
CN1CCN(Cn2nc(COc3ccc(Cl)cc3)n(/N=C/c3ccc(-c4ccc(Cl)cc4Cl)o3)c2=S)CC1 | inactive: 6.18 µM
O=C(c1ccccc1)c1ccc(C(c2c(O)c3ccccc3oc2=O)c2c(O)c3ccccc3oc2=O)cc1 | inactive: 20.7 µM
CCn1c2ccccc2c2ccc(C3C(C(=O)OC)=C(C)NC(C)=C3C(=O)OC)cc21 | inactive: 33.7 µM
COc1cc(O)c2c(c1)O[C@@H]1OCC[C@H]21 | inactive: > 100 µM
CCCCCCCCCCCCCC(=O)CC(=O)c1c(O)cccc1O | inactive: > 100 µM

SMILES | GI50
C/C=C/C=C/[C@H]1Cc2cc(O)cc(O)c2O1 | inactive: > 100 µM
Nc1nc(-c2ccc3ccccc3c2)cc(-c2cc(-c3ccc4ccccc4c3)nc(N)n2)n1 | inactive: > 100 µM
CC(Oc1ccc(OCC2CCCCC2)cc1)C(=O)NCCO (configuration not stated) | inactive: > 100 µM
O=C(c1ccccn1)c1nnn2ccccc12 | inactive: > 100 µM
C/C(=N\OCC(O)CNCCSCc1ccccc1)c1ccccc1Cl (configuration not stated) | inactive: 17.7 µM
CCN1C[C@]2(C)CC[C@H](OC)C34C5C[C@@H]6[C@@H](OC)C[C@@](OC)(C5[C@H]6OCc5ccccc5)C(C13)[C@H](OC(C)=O)[C@@H]42 (some centres not stated) | inactive: > 100 µM
Cc1ccc2nc3c(=O)[nH]c(=O)nc-3n(C)c2c1C | inactive: > 100 µM
Cc1cccc(C)c1NC(=S)NC=C1C(=O)c2ccccc2C1=O | inactive: 30.8 µM
COC1C2C[C@@H](O)CCC2C(C(=O)OCCl)C[C@H]1O (some centres not stated) | inactive: > 100 µM
CCCCCC(=O)C(C)C1=Nc2nnc(CCCCCCCc3nnc4n3C(=O)C(C(C)C(=O)CCCCC)=N4)n2C1=O (configuration not stated) | inactive: > 100 µM
CC(C)(C)OC(=O)N(CCCCNC(=O)c1ccccc1)CCCNC(=O)c1ccccc1 | inactive: > 100 µM
COC(C)(C)C1=CCC(C)CC1 (configuration not stated) | inactive: > 100 µM
CCOC(=O)C(Cc1cc(OC)c(CC(C(=O)OCC)C(=O)OCC)cc1OC)C(=O)OCC | inactive: > 100 µM
COC1=C(OC)C(=O)C(Cc2c(C)nc3sccn23)=C(C)C1=O | inactive: 18.1 µM
Nc1cc2[nH]c(=O)c3cc(Cl)ccc3c2cc1Cl | inactive: 9.82 µM
Oc1c(C2=NNC(c3cccs3)C2)ccc2ccccc12 (configuration not stated) | inactive: 26.4 µM
c1ccc(C(C2=Nc3cccc4cccc(c34)N2)c2ccccc2)cc1 | inactive: 25.1 µM
COC(=O)/C(=N/O)C(C(=O)OC)C(=O)C(=O)Nc1c(Cl)cc(C)cc1S(=O)(=O)O (configuration not stated) | inactive: > 100 µM
O=c1ccn(C2OC(COC3CCCCO3)C(OC3CCCCO3)C2OC2CCCCO2)c(=O)n1-c1ccccc1 (configuration not stated) | inactive: > 100 µM
Clc1ccc(-c2nn3c(-c4ccncc4)nnc3s2)cc1 | inactive: > 100 µM
O=S(=O)(O)CCCC1S(=O)(=O)OCCOS1(=O)=O | inactive: > 100 µM
NC(=S)N/N=C\CC(O)(C(F)(F)F)C(F)(F)F | inactive: > 10 µM
OC(CCNC12CC3CC(CC(C3)C1)C2)c1ccccc1 (configuration not stated) | inactive: > 100 µM
